The name of at least one read-out is uncertain.
What was measured:
Format in all cases: cell-based
[1] = tested on: Pseudomonas aeruginosa expressing AmpC (CL5701); assay: Growth inhibitory concentration (OD600), P. aeruginosa CL5701, with relebactam; conditions: lowest concentration inhibiting 95% of bacterial growth, BLi relebactam 4 μg/mL, 35±2° C., 22 hours
Protocol: (§1) The concentrations of compounds required to inhibit the growth of various strains of bacteria were determined in an assay that assessed bacterial growth by measuring optical density at 600 nm (OD600). The bacterial strains tested included the clinical strains Escherichia coli expressing NDM-1 (CLB30016), Klebsiella pneumoniae expressing KPC-1 (CL6569), Acinetobacter baumannii expressing TEM-1, AmpC, and Oxa-24/40 (CL6188) and Pseudomonas aeruginosa expressing AmpC (CL5701). All compounds were tested in the presence of a R lactamase inhibitor (BLi, Relebactam) in 384-well microplates.
(§2) The clinical strains were stored as frozen single use stocks, thawed and diluted into 1.1× cation-adjusted Mueller-Hinton II broth to achieve approximately 2×10^5 CFU/mL. Test compounds were dissolved in DMSO and diluted 1:50 in the assay, resulting in a final concentration range of 100 μM to 0.098 μM. On the day of the assay, 1 μL of test compound was added to the plate followed by 4 μL of 50 μg/mL BLi in MOPS buffer and 45 μL of diluted bacteria. Plates were centrifuged at 1000 rpm for 30 seconds, shaken at approximately 800 rpm for 1 minute, and incubated at 35±2° C. for 22 hours. The concentration of BLi used in the assay was 4 μg/mL. At the end of the incubation, absorbance at 600 nm was determined using a spectrophotometer. Inhibition was quantitated by identifying the lowest concentration of test compound that was required to inhibit 95% of the growth of the bacteria. The results for Examples 1-39 are reported in Table I, expressed as the concentration of compound that inhibited 95% of bacterial growth (Minimum Inhibitory Threshold Concentration; MITC95).

[2] = tested on: Acinetobacter baumannii expressing TEM-1, AmpC, and Oxa-24/40 (CL6188); conditions: lowest concentration inhibiting 95% of bacterial growth; BLi relebactam 4 μg/mL; 35±2° C., 22 hours; OD600
Protocol: as §1, §2

[3] = tested on: Escherichia coli expressing NDM-1 (CLB30016); assay: Growth inhibitory concentration (OD600), E. coli CLB30016, with relebactam; conditions: lowest concentration inhibiting 95% of bacterial growth, BLi relebactam 4 μg/mL, 35±2° C., 22 hours
Protocol: as §1, §2

CC1(C)[C@H](NC(=O)/C(=N\O[C@](C)(C(=O)O)[C@H]2CCc3cc(C(=N)NCC45CC(N)(C4)C5)ccc3O2)c2csc(N)n2)C(=O)N1OS(=O)(=O)O [Compound 3, (S)-2-((R)-6-(N-((3-amino-bicyclo[1.1.1]pentan-1-yl)-methyl)carbamimidoyl)chroman-2-yl)-2-((((Z)-1-(2-aminothiazol-4-yl)-2-(((S)-2,2-dimethyl-4-oxo-1-(sulfooxy)-azetidin-3-yl)amino)-2-oxoethylidene)-amino)oxy)propanoic acid]
PA—CL5701 MITC95 [1]: 1.563 µM | AB—CL6188 MITC95 [2]: 6.25 µM | EC—CLB30016 MITC95 [3]: 3.125 µM

CC1(C)[C@H](NC(=O)/C(=N\O[C@](C)(C(=O)O)[C@H]2CCc3cc(C(=N)NCC4CCNCC4)ccc3O2)c2csc(N)n2)C(=O)N1OS(=O)(=O)O [Compound 4, (S)-2-((((Z)-1-(2-aminothiazol-4-yl)-2-(((S)-2,2-dimethyl-4-oxo-1-(sulfooxy)azetidin-3-yl)amino)-2-oxoethylidene)amino)oxy)-2-((R)-6-(N-(piperidin-4-ylmethyl)carbamimidoyl)chroman-2-yl)propanoic Acid]
PA—CL5701 MITC95 [1]: 1.563 µM | AB—CL6188 MITC95 [2]: 4.688 µM | EC—CLB30016 MITC95 [3]: 6.25 µM

CC1(C)[C@H](NC(=O)/C(=N\O[C@](C)(C(=O)O)[C@H]2CCc3cc(C(=N)NC[C@@H]4CCNC4)ccc3O2)c2csc(N)n2)C(=O)N1OS(=O)(=O)O [Compound 5, (S)-2-((((Z)-1-(2-aminothiazol-4-yl)-2-(((S)-2,2-dimethyl-4-oxo-1-(sulfooxy)azetidin-3-yl)amino)-2-oxoethylidene)-amino)oxy)-2-((R)-6-(N—(((R)-pyrrolidin-3-yl)methyl)-carbamimidoyl)chroman-2-yl)propanoic acid]
PA—CL5701 MITC95 [1]: 3.125 µM | AB—CL6188 MITC95 [2]: 12.5 µM | EC—CLB30016 MITC95 [3]: 12.5 µM

CC1(C)[C@H](NC(=O)/C(=N\O[C@](C)(C(=O)O)[C@H]2CCc3cc(C(=N)NC[C@H]4CCNC4)ccc3O2)c2csc(N)n2)C(=O)N1OS(=O)(=O)O [Compound 6, (S)-2-((((Z)-1-(2-aminothiazol-4-yl)-2-(((S)-2,2-dimethyl-4-oxo-1-(sulfooxy)azetidin-3-yl)amino)-2-oxoethylidene)-amino)oxy)-2-((R)-6-(N—(((S)-pyrrolidin-3-yl)methyl)-carbamimidoyl)chroman-2-yl)propanoic acid]
PA—CL5701 MITC95 [1]: 3.125 µM | AB—CL6188 MITC95 [2]: 12.5 µM | EC—CLB30016 MITC95 [3]: 6.25 µM

CC1(C)[C@H](NC(=O)/C(=N\O[C@](C)(C(=O)O)[C@H]2CCc3cc(C(=N)NC[C@H]4C[C@H](N)C4)ccc3O2)c2csc(N)n2)C(=O)N1OS(=O)(=O)O [Compound 7, (S)-2-((R)-6-(N-(((1r,3R)-3-aminocyclobutyl)methyl)carbamimidoyl)chroman-2-yl)-2-((((Z)-1-(2-aminothiazol-4-yl)-2-(((S)-2,2-dimethyl-4-oxo-1-(sulfooxy)azetidin-3-yl)amino)-2-oxoethylidene)-amino)oxy)propanoic acid]
PA—CL5701 MITC95 [1]: 1.563 µM | AB—CL6188 MITC95 [2]: 6.25 µM | EC—CLB30016 MITC95 [3]: 6.25 µM

CC1(C)[C@H](NC(=O)/C(=N\O[C@](C)(C(=O)O)[C@H]2CCc3cc(C(=N)NC[C@H]4C[C@@H](N)C4)ccc3O2)c2csc(N)n2)C(=O)N1OS(=O)(=O)O [Compound 8, (S)-2-((R)-6-(N-(((1s,3S)-3-aminocyclobutyl)methyl)carbamimidoyl)chroman-2-yl)-2-((((Z)-1-(2-aminothiazol-4-yl)-2-(((S)-2,2-dimethyl-4-oxo-1-(sulfooxy)azetidin-3-yl)amino)-2-oxoethylidene)-amino)oxy)propanoic acid]
PA—CL5701 MITC95 [1]: 1.563 µM | AB—CL6188 MITC95 [2]: 10.94 µM | EC—CLB30016 MITC95 [3]: 6.641 µM

CC1(C)[C@H](NC(=O)/C(=N\O[C@](C)(C(=O)O)[C@H]2CCc3cc(C(=N)NCC[C@@H]4CCCN4)ccc3O2)c2csc(N)n2)C(=O)N1OS(=O)(=O)O [Compound 9, (S)-2-((((Z)-1-(2-aminothiazol-4-yl)-2-(((S)-2,2-dimethyl-4-oxo-1-(sulfooxy)azetidin-3-yl)amino)-2-oxo-ethylidene)-amino)oxy)-2-((R)-6-(N-(2-((S)-pyrrolidin-2-yl)-ethyl)-carbamimidoyl)chroman-2-yl)propanoic acid]
PA—CL5701 MITC95 [1]: 1.563 µM | AB—CL6188 MITC95 [2]: 3.125 µM | EC—CLB30016 MITC95 [3]: 6.25 µM

CC1(C)[C@H](NC(=O)/C(=N\O[C@](C)(C(=O)O)[C@H]2CCc3cc(C(=N)NCC[C@H]4CCCN4)ccc3O2)c2csc(N)n2)C(=O)N1OS(=O)(=O)O [Compound 10, (S)-2-((((Z)-1-(2-aminothiazol-4-yl)-2-(((S)-2,2-dimethyl-4-oxo-1-(sulfooxy)azetidin-3-yl)amino)-2-oxoethylidene)-amino)oxy)-2-((R)-6-(N-(2-((R)-pyrrolidin-2-yl)ethyl)-carbamimidoyl)chroman-2-yl)propanoic acid]
PA—CL5701 MITC95 [1]: 3.125 µM | AB—CL6188 MITC95 [2]: 6.25 µM | EC—CLB30016 MITC95 [3]: 6.25 µM

CC1(C)[C@H](NC(=O)/C(=N\O[C@](C)(C(=O)O)[C@H]2CCc3cc(C(=N)NCCCC4(N)CC4)ccc3O2)c2csc(N)n2)C(=O)N1OS(=O)(=O)O [Compound 11, (S)-2-((R)-6-(N-(3-(1-aminocyclopropyl)propyl)carbamimidoyl)chroman-2-yl)-2-((((Z)-1-(2-aminothiazol-4-yl)-2-(((S)-2,2-dimethyl-4-oxo-1-(sulfooxy)azetidin-3-yl)amino)-2-oxoethylidene)-amino)oxy)propanoic acid]
PA—CL5701 MITC95 [1]: 1.563 µM | AB—CL6188 MITC95 [2]: 6.25 µM | EC—CLB30016 MITC95 [3]: 3.125 µM

CC1(C)[C@H](NC(=O)/C(=N\O[C@](C)(C(=O)O)[C@H]2CCc3cc(C(=N)NCCC4(N)CC4)ccc3O2)c2csc(N)n2)C(=O)N1OS(=O)(=O)O [Compound 12, (S)-2-((R)-6-(N-(2-(1-aminocyclopropyl)ethyl)carbamimidoyl)chroman-2-yl)-2-((((Z)-1-(2-aminothiazol-4-yl)-2-(((S)-2,2-dimethyl-4-oxo-1-(sulfooxy)azetidin-3-yl)amino)-2-oxoethylidene)amino)oxy)-propanoic acid]
PA—CL5701 MITC95 [1]: 1.563 µM | AB—CL6188 MITC95 [2]: 6.25 µM | EC—CLB30016 MITC95 [3]: 3.125 µM

CC1(C)[C@H](NC(=O)/C(=N\O[C@](C)(C(=O)O)[C@H]2CCc3cc(C(=N)NCCC4(N)CCC4)ccc3O2)c2csc(N)n2)C(=O)N1OS(=O)(=O)O [Compound 13, (S)-2-((R)-6-(N-(2-(1-aminocyclobutyl)ethyl)carbamimidoyl)chroman-2-yl)-2-((((Z)-1-(2-aminothiazol-4-yl)-2-(((S)-2,2-dimethyl-4-oxo-1-(sulfooxy)azetidin-3-yl)amino)-2-oxoethylidene)-amino)oxy)propanoic acid]
PA—CL5701 MITC95 [1]: 3.125 µM | AB—CL6188 MITC95 [2]: 6.25 µM | EC—CLB30016 MITC95 [3]: 6.25 µM

CC1(C)[C@H](NC(=O)/C(=N\O[C@](C)(C(=O)O)[C@H]2CCc3cc(C(=N)NCCN4CCC(N)CC4)ccc3O2)c2csc(N)n2)C(=O)N1OS(=O)(=O)O [Compound 14, (S)-2-((R)-6-(N-(2-(4-aminopiperidin-1-yl)ethyl)carbamimidoyl)chroman-2-yl)-2-((((Z)-1-(2-aminothiazol-4-yl)-2-(((S)-2,2-dimethyl-4-oxo-1-(sulfooxy)azetidin-3-yl)amino)-2-oxoethylidene)amino)oxy)propanoic Acid]
PA—CL5701 MITC95 [1]: 3.125 µM | AB—CL6188 MITC95 [2]: 12.5 µM | EC—CLB30016 MITC95 [3]: 3.125 µM

Reference: patent publication US20260258029A1, “CHROMANE AMIDINE MONOBACTAM COMPOUNDS FOR THE TREATMENT OF BACTERIAL INFECTIONS” (priority 2022, published 2026)
